# PubChem BioAssay AID1508642 (National Center for Advancing Translational Sciences (NCATS), 2021)
# Hit rate of the full screen: of about 43,000 compounds, about 200 (0.47%) were called active. Another 12% or so got no clear call; they are omitted. Calls come from the whole dose curve; as a rule, active = well fitted cell-killing curve with a large enough effect; inconclusive = small, poorly fitted or top-dose-only effect, or effect the other way; inactive = flat fitted curve, though single readings scatter. The list shows a part of the results.
# Test: Cell viability qHTS assay in S16 Pmp22-F2sN cells; note: nearly all actives have a fitted effect of over 65% in size
# Settings: S16 Pmp22-F2sN Schwann cells (luciferase reporters placed in the Pmp22 gene) viability, CellTiter-Glo, 24 h; series mostly up to 57.5 µM; activity change, negative = cytotoxicity: at the top concentration
# Outline: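 Rat S16 Schwann reporter line, 24 h treatment with library compounds delivered at 23 nL per well. Cell viability by CellTiter-Glo luminescence.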
# % is set by controls: 0 for no effect and ±100 for the full control effect; potency is the fitted concentration of half-maximal effect.
Compound,"activity change, negative = cytotoxicity",Potency
O=C(c1cc(-c2ccc(Cl)cc2)on1)N(Cc1cccc(F)c1)Cc1ccco1,inactive: 2.75%,
COc1ccc(CNc2nc(-c3ccco3)nn2C(=O)c2ccccc2Cl)cc1,inactive: 5.43%,
COc1cc(NC(=O)c2cc(-c3cccs3)on2)c(OC)cc1Cl,inactive: 12.5%,
COc1ccc(Cl)cc1NC(=O)c1cc2ccc3ccc(C)[nH]c3c2n1,inactive: 4.16%,
Cn1cc(S(=O)(=O)c2ccc(Cl)cc2)c(=O)c2cc(F)c(N3CCCC3)cc21,inactive: -2.48%,
COCCn1c(C)cc(O)c(C(c2ccc(C)cc2)N2CCCCC2)c1=O (stereo unspecified),inactive: -2.54%,
CC(=O)N1CCc2cc(Br)cc(S(=O)(=O)N3CCN(c4cc(C)ccc4C)CC3)c21,inactive: 13.8%,
CC(=O)N1c2ccccc2C(=O)C1N1CCN(c2cccc(C(F)(F)F)c2)CC1 (stereo unspecified),inactive: 5.81%,
COc1ccccc1N(CC(=O)Nc1ccc(C)c(Cl)c1)S(=O)(=O)c1ccc(C)cc1,inactive: 18.6%,
CCOc1ccc(CC(=O)NC2CC(=O)N(c3ccc(C)c(C)c3)C2)cc1 (stereo unspecified),inactive: 7.4%,
C#CC(C)(CC)NC(=O)c1cc2c(n(-c3ccc(Cl)cc3)c1=O)CC(C)(C)CC2=O (stereo unspecified),inactive: 1.35%,
CCN(CC)c1ccc(NC(=O)c2cc(S(=O)(=O)N3CCc4ccccc43)cn2C)c(C)c1,inactive: 11.7%,
Cc1ccccc1OCC(=O)N(Cc1ccc(N(C)C)cc1)CC1CCCO1 (stereo unspecified),inactive: -2.63%,
OCc1nc2ccccc2n1Cc1c(F)cccc1Cl,inactive: 0.779%,
Cn1cc(-c2cc3n(n2)CCC(=O)N3CC(=O)O)c2ccccc21,inactive: 4.8%,
Cc1cccc(CNC(=O)CCCN2C(=O)CCn3nc(-c4cn(C)c5ccccc45)cc32)c1,inactive: -14%,
Cn1nc(-c2ccccc2F)c2cc(C(=O)N3CCN(c4ccc(F)cc4)CC3)sc21,inactive: -22.7%,
CCOC(=O)c1[nH]c(C)c(CCC(=O)NCc2ccccc2C)c1C,inactive: 3.85%,
CCn1cc(S(=O)(=O)c2ccc(C)cc2)c(=O)c2cc(F)c(N3CCCCCC3)cc21,inactive: -1.63%,
CCCN1CCN(CCCNC(=O)Cn2c(-c3cccs3)cc3ccccc32)CC1,inactive: 5.97%,
Cc1ccc(NC(=O)CSc2ncnc3c2sc2ccccc23)cc1C,inactive: 10.5%,
Cc1nn(C(=O)c2cccc(F)c2)c(C)c1S(=O)(=O)N1CCCCCC1,inactive: -1.48%,
CCC(C)NC(=O)Cn1c(=O)n(Cc2ccc(C(=O)NCc3ccccc3OC)cc2)c(=O)c2ccccc21 (stereo unspecified),inactive: 4.94%,
Cn1c(=O)n(C/C=C/c2ccccc2)c(=O)c2c1nc1n2CCN1c1ccc(Cl)cc1,inactive: 4.31%,

Compound,"activity change, negative = cytotoxicity",Potency
COc1ccc(Cn2c(SCc3ccc(C(=O)NCCc4ccccc4)cc3)nc3cccnc32)cc1,inactive: 1.08%,
CCN(CC)c1nn2c(=O)c(C(=O)NCc3cccc(C)c3)cnc2s1,inactive: -0.194%,
COc1ccc(-c2noc(CN3CCN(c4cccc(Cl)c4)CC3)n2)cc1,inactive: 1.32%,
COc1ccc(OC)c(Nc2ncnc3c2cnn3-c2ccc(C)cc2)c1,inactive: 1.13%,
Cc1cc(C)cc(NS(=O)(=O)c2ccc3[nH]cc(C(=O)N4CCCCCC4)c(=O)c3c2)c1,inactive: -3%,
Cc1ccc(C)c(NC(=O)CSc2nc(=O)n(Cc3ccccn3)c3c2CCC3)c1,inactive: -1.9%,
Cc1cccc(N2CCN(S(=O)(=O)c3ccc(F)c(C(=O)Nc4ccc(C(C)C)cc4)c3)CC2)c1C,inactive: -4.42%,
COc1cc(CN2CCc3nc(N4CCN(c5ccccc5F)CC4)ncc3C2)ccc1OC(C)C,inactive: -4.14%,
CCCCN(CC)C(=O)Cn1c(=O)n(-c2ccc(OCC)cc2)c(=O)c2c3c(sc21)CCCC3,inactive: 2.05%,
Cc1c(C(=O)Nc2ccc(Br)cc2F)sc2ncnc(N(C)C3CCCCC3)c12,inactive: 26.4%,
Cc1nc2cccnc2n1-c1cccc(C(=O)NCCc2ccc(Cl)cc2)c1,inactive: -17.9%,
N#Cc1ccccc1NC(=O)C(=O)NCC(c1ccc2c(c1)OCO2)N1CCN(c2ccccc2)CC1 (stereo unspecified),inactive: 3.94%,
CC(C)(C)c1ccc(NC(=O)CSc2nnc3scc(-c4ccccc4)n23)cc1,inactive: 14.2%,
CSc1ncc(C(=O)Nc2ccccc2C(=O)c2ccccc2)c(C)n1,inactive: 15.4%,
CCOC(=O)c1cnc2c(OC)cccc2c1Nc1cccc(O)c1,inactive: 15.7%,
CCOC(=O)c1c(C)[nH]c(C)c1S(=O)(=O)NCC(=O)N(C)c1ccc(C)c(C)c1,inactive: 6.56%,
Cn1cnc(S(=O)(=O)N2CCC(C(=O)N3CCN(c4cccc(C(F)(F)F)c4)CC3)CC2)c1,inactive: 7.37%,
O=C(Nc1c(C(=O)c2ccccc2)oc2ccccc12)c1cc(=O)c2ccccc2o1,inactive: 7.02%,
Cc1cc(C)c2c(C)c(C(=O)N3CCC(c4nc5ccccc5s4)CC3)oc2c1,inactive: 7.57%,
CCn1c2ccc(F)cc2c2nnc(SCCN3CCCCC3)nc21,inactive: 2.87%,
Cc1cccc(CNC(=O)C2CCN(c3nc4ccc(Cl)cc4[nH]3)CC2)c1,inactive: -12.3%,
Cc1ccc(C(=O)Nc2ccccc2F)cc1S(=O)(=O)N1CCOCC1,inactive: 19%,
Cc1ccc(NC(=O)CCC(=O)N2CCOc3ccccc32)c(Cl)c1,inactive: 1.55%,
Cc1nc2c3ccccc3nc(NNC(=O)CCC(=O)N3CCN(c4ccccc4F)CC3)n2n1,inactive: 4.48%,

Compound,"activity change, negative = cytotoxicity",Potency
COc1ccc(C2Nc3ccccc3-c3nnc(SC)nc3O2)cc1C (stereo unspecified),inactive: 1.88%,
COc1cc(C2c3c(oc4ccc(C)cc4c3=O)C(=O)N2Cc2ccc(F)cc2)ccc1O (stereo unspecified),inactive: -0.113%,
COc1ccc(C(=O)Nc2nnc(S(=O)(=O)N3CCOCC3)s2)cc1,inactive: -19.5%,
Cc1nn(C(C)C(=O)NCc2cccc(F)c2)c(=O)c2c1sc1ccccc12 (stereo unspecified),inactive: 2.94%,
O=C(CSc1nnc(-c2ccccc2)o1)N1CCCc2ccccc21,inactive: -4.68%,
COc1ccc(C)cc1NC(=O)C(NS(=O)(=O)c1cccc2nsnc12)c1ccccc1 (stereo unspecified),inactive: 1.75%,
CCOC(=O)N1CCc2c(sc3c2c(=O)n(-c2ccc(Cl)cc2)c(=O)n3CC(=O)Nc2ccccc2)C1,,active: 12.6 µM
CCN(CC)C(=O)Cn1cc(SCC(=O)Nc2ccc(C)cc2)c2ccccc21,inactive: -2.69%,
CCOCN(C(=O)CSc1nc2ccccc2[nH]1)c1c(C)cccc1CC,inactive: 5.26%,
O=C(c1ccccc1)c1ccc2nc(Nc3ccccc3Cl)c3nncn3c2c1,inactive: 6.04%,
CCCCN(CC)C(=O)Cn1nc(C)c2c(C)n(-c3ccccc3)nc2c1=O,inactive: 0.0071%,
CCOC(=O)c1c(C)oc2nc(C)nc(NCc3cccc(OC)c3)c12,inactive: -1.85%,
COc1ccccc1NC(=O)CCNS(=O)(=O)c1ccc2c(c1)CCCC(=O)N2,inactive: 13.8%,
CCOC(=O)c1cc(OC(=O)c2ccc(OC)c(OC)c2)n(-c2ccccc2)n1,inactive: 13.7%,
COc1ccccc1CNC(=O)CCCn1c(=O)c2ccccc2n(Cc2ccccc2F)c1=O,inactive: 2.56%,
Cc1ccc(N2CC(C(=O)Nc3ccc(Cl)cc3Cl)CC2=O)cc1 (stereo unspecified),inactive: -1.38%,
Cc1sc2c(c1C)c(=O)n(-c1cccc(C(F)(F)F)c1)c(=O)n2Cc1ccc(F)cc1,inactive: -24.3%,
COC(=O)c1ccc(NC(=O)CCc2c(C)nc3c(c2C)c(=O)n(C)c(=O)n3C)cc1,inactive: -3.38%,
COc1ccccc1Cc1nc2ccccc2nc1SCC(=O)Nc1cccc(Cl)c1C,inactive: -5.07%,
Cc1ccc(-c2nc3ccc(Cl)cn3c2Nc2ccccc2C)s1,inactive: -28.6%,
CC(C)c1cnc2c(c1SCC(=O)NCc1ccccc1)c(=O)n(C)c(=O)n2C,inactive: 16.6%,
CN(Cc1ccccc1)C(=O)CSc1nc2ccccc2n1Cc1ccccc1F,inactive: 0.934%,
Cc1ccccc1NC(=O)CSc1nc(=O)n(CCN2CCOCC2)c2c1CCC2,inactive: 24%,
COc1ccc(CNC(=O)c2cnc3cc(C)ccn3c2=O)cc1,inactive: 5.98%,

Compound,"activity change, negative = cytotoxicity",Potency
COc1cc(NC(=O)CSC2=Nc3ccccc3N=C(c3ccc(F)cc3)C2)cc(OC)c1,inactive: 20.4%,
Cc1ccc(NC(=O)c2cnc(SCC(=O)Nc3cc(C)on3)n(C)c2=O)cc1,inactive: -4.55%,
Cc1ccc(CNC(=O)Cn2cc(S(=O)(=O)Cc3ccccc3F)c3ccccc32)cc1,inactive: -20.3%,
COc1ccccc1N1CCN(C(=O)CCNS(=O)(=O)c2ccc3c(c2)CCN3C(=O)C2CC2)CC1,inactive: 4.87%,
CCOC(=O)c1ccc(NC(=O)CC2C(=O)N(c3cccc(OC)c3)C(=O)N2Cc2ccc(OC)cc2)cc1 (stereo unspecified),inactive: -2.52%,
C=CCc1ccccc1OCC(O)CN1CCN(c2ccccc2)CC1 (stereo unspecified),inactive: 14.9%,
COc1ccccc1C(=O)Nc1ccc2c(c1)nc(CN1CCCCC1)n2C,inactive: 16.2%,
CCn1c(=O)n(CC)c2cc(N3CCCCC3)c(NC(=O)Nc3ccccc3C(F)(F)F)cc21,inactive: -14.1%,
Cc1cc(C)n2nc(SCC(=O)Nc3cccc(C(F)(F)F)c3)nc2n1,inactive: -8.36%,
COc1ccc(Cl)cc1NC(=O)c1c(NCc2sccc2C)sc2c1CCCC2,inactive: -0.378%,
Clc1ccccc1CNc1nc2ccccc2c2nc(-c3cccnc3)nn12,inactive: 25.8%,
COCCCNC(=O)c1cc(-c2cccnc2)nc2ccc(S(=O)(=O)N3CCC(C)CC3)cc12,inactive: 4.4%,
CN1C(=O)C2(c3ccccc31)N(c1cccc(F)c1)C(=O)CS2(=O)=O (stereo unspecified),inactive: -0.453%,
O=C(Cn1nnc(-c2ccc(Cl)cc2)n1)NCc1ccc(F)cc1,inactive: 5.99%,
COc1ccc(OC)c(CNS(=O)(=O)c2c(C(=O)N3CCCCCC3)c(C)n(C)c2C)c1,inactive: 3.12%,
O=S(=O)(c1ccc(Br)cc1)c1nc(-c2cccs2)oc1SCc1ccccc1F,inactive: -26.5%,
COc1ccc(NC(=O)C2CCCN(S(=O)(=O)c3ccc4c(c3)CCCC(=O)N4)C2)c(OC)c1 (stereo unspecified),inactive: 7.89%,
Cc1nn(S(=O)(=O)c2ccc(F)cc2)c(C)c1S(=O)(=O)N1CCC(C)CC1,inactive: 9.6%,
COc1cccc2cc(C(=O)NCCc3c(C)[nH]c4ccc(Br)cc34)c(=O)oc12,inactive: -0.442%,
Cc1ccc(-n2ncc(C(=O)Nc3ccc4c(c3)OCO4)c2C2CCN(C(=O)OC(C)(C)C)CC2)cc1,inactive: -13%,
Cc1ccnc(NS(=O)(=O)c2cc(-c3cc(C)no3)ccc2C)c1,inactive: -0.897%,
CCc1ccc(N(CC)C(=O)Cn2c(=O)oc3ccccc32)cc1,inactive: 3.57%,
CC(C)(C)NC(=O)c1cnn2c(C(F)F)cc(-c3ccccc3)nc12,inactive: 6.05%,
Cc1ccc(CCNC(=O)C2CCN(c3nnc(-n4cccc4CNc4ccc(C)cc4)s3)CC2)cc1,inactive: -11.9%,
